Data taken from article PMC11277258, “Melanocortin-4 Receptor PLC Activation Is Modulated by an Interaction with the Monocarboxylate Transporter 8” (International Journal of Molecular Sciences, 2024).

Molecular target: T1, monocarboxylate transporter 8, C-terminally tagged with HaloTag (MCT8-HT) (human, UniProt P36021 1-539, HaloTag ligand 618 bound to the HaloTag)
T1 construct: monocarboxylate transporter 8 (MCT8, gene SLC16A2), human; The functional rows used MCT8 in hcpcDps without a stated tag; also called MCT8-HaloTag; HaloTag (HT)-tagged MCT8; source: HEK293, transfected, in live cells; not shown: HaloTag, C-terminal, kept
Assay: FRET or BRET; NanoBRET in live HEK293 cells; donor (NL-tagged) and acceptor (MCT8-HT) DNA co-transfected 1:8 (100 ng:800 ng); HT-Ligand 618; emission at 460 nm and 618 nm; DMSO background subtracted; mBU
Conditions: partners not purified

T1 sequence (P36021 whole entry): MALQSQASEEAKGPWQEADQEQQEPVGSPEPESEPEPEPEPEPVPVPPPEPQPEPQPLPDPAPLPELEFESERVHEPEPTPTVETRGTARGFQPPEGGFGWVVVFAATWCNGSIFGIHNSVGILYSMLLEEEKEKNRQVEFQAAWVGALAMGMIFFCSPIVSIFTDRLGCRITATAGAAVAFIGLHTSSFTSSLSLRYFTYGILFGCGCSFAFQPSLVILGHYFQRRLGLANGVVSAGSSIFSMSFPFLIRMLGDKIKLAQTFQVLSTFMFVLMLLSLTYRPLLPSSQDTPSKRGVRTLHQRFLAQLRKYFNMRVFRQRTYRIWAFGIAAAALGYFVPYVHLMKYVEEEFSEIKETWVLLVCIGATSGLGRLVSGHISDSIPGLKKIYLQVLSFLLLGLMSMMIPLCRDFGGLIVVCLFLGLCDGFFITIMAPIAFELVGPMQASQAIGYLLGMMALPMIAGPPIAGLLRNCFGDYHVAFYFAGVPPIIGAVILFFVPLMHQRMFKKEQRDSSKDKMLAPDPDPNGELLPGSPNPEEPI

B1: melanocortin-4 receptor, C-terminally tagged with NanoLuc (MC4R-NL) (receptor, human, UniProt P32245 1-332, looked up)
chain: MVNSTHRGMHTSLHLWNRSSYRLHSNASESLGKGYSDGGCYEQLFVSPEVFVTLGVISLLENILVIVAIAKNKNLHSPMYFFICSLAVADMLVSVSNGSETIVITLLNSTDTDAQSFTVNIDNVIDSVICSSLLASICSLLSIAVDRYFTIFYALQYHNIMTVKRVGIIISCIWAACTVSGILFIIYSDSSAVIICLITMFFTMLALMASLYVHMFLMARLHIKRIAVLPGTGAIRQGANMKGAITLTILIGVFVVCWAPFFLHLIFYISCPQNPYCVCFMSHFNLYLILIMCNSIIDPLIYALRSQELRKTFKEIICCYPLGGLCDLSSRY
notes: melanocortin-4 receptor (MC4R), human; Cloned into a Promega NanoLuc fusion vector (pFC32K or pFC14A); The functional rows used another construct: N-terminally HA-tagged MC4R in hcpcDps; also called NanoLuc (NL)-tagged MC4R; source: HEK293, transfected, in live cells; not shown: NanoLuc, C-terminal, kept
fold BRET ratio over the negative control pair Rab6b-NL and MCT8-HT: 6 fold
